From patent US20250090557A1 (priority 2020, published 2025)

Test system: SARS-CoV-2
Format: cell-based
Settings: Calu3, single cell and protein level

## COC1=C(OC)C(=O)C(CCCCCCCCCC[P+](c2ccccc2)(c2ccccc2)c2ccccc2)=C(C)C1=O.CS(=O)(=O)[O-] [Mito-MES, 10-(4,5-dimethoxy-2-methyl-3,6-dioxo-1,4-cyclohexadienyl) decyl triphenylphosphonium methanesulfonate]
  percent of SARS-CoV-2 infected cells (flow cytometry): inhibits or reduces the percent of SARS-CoV-2 infected Calu3 cells
